Where a chain is given by its changes, count along the chain named. Some of the results follow.
T1: RBFOX1 RRM RbFoxmut (Fox-RRM*) (Homo sapiens, UniProt Q9NWB1 109-208, R118D;E147R;N151S;E152T)
T1 sequence: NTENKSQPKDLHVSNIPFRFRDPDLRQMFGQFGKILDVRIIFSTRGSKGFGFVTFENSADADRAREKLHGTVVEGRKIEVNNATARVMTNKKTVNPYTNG

B1: CGACAAC (DNA:RNA)
RNA: GGGAGACCGGAAUUCAGAUUGUCCCGACAACUUAAAUCCCGUCGUAGCCACCA
DNA 1: CAATCTGAATTCCGGTCTCCC
DNA 2: TGGTGGCTACGACGGGATT
B2: UUCGUAU (DNA:RNA)
RNA: B1 RNA with C25U, G26U, A27C, C28G, A29U, C31U
DNA 1: CAATCTGAATTCCGGTCTCCC
DNA 2: TGGTGGCTACGACGGGATT
B3: UGGCUCC (DNA:RNA)
RNA: B1 RNA with C25U, A27G, A29U, A30C
DNA 1: CAATCTGAATTCCGGTCTCCC
DNA 2: TGGTGGCTACGACGGGATT
B4: UCUGCAA (DNA:RNA)
RNA: B1 RNA with C25U, G26C, A27U, C28G, A29C, C31A
DNA 1: CAATCTGAATTCCGGTCTCCC
DNA 2: TGGTGGCTACGACGGGATT
B5: GUGGGCG (DNA:RNA)
RNA: GGGAGACCGGAAUUCAGAUUGUCCGUGGGCGUUAAAUCCCGUCGUAGCCACCA
DNA 1: CAATCTGAATTCCGGTCTCCC
DNA 2: TGGTGGCTACGACGGGATT
B6: ACUGGGC (DNA:RNA)
RNA: B5 RNA with G25A, U26C, G27U, C30G, G31C
DNA 1: CAATCTGAATTCCGGTCTCCC
DNA 2: TGGTGGCTACGACGGGATT
B7: GCCCCGG (DNA:RNA)
RNA: B5 RNA with U26C, G27C, G28C, G29C, C30G
DNA 1: CAATCTGAATTCCGGTCTCCC
DNA 2: TGGTGGCTACGACGGGATT
B8: CUUGGAU (DNA:RNA)
RNA: B5 RNA with G25C, G27U, C30A, G31U
DNA 1: CAATCTGAATTCCGGTCTCCC
DNA 2: TGGTGGCTACGACGGGATT
B9: CUGGAGG (DNA:RNA)
RNA: B5 RNA with G25C, G29A, C30G
DNA 1: CAATCTGAATTCCGGTCTCCC
DNA 2: TGGTGGCTACGACGGGATT
B10: UUUCACU (DNA:RNA)
RNA: B1 RNA with C25U, G26U, A27U, A30C, C31U
DNA 1: CAATCTGAATTCCGGTCTCCC
DNA 2: TGGTGGCTACGACGGGATT
B11: UCAGGGA (DNA:RNA)
RNA: B5 RNA with G25U, U26C, G27A, C30G, G31A
DNA 1: CAATCTGAATTCCGGTCTCCC
DNA 2: TGGTGGCTACGACGGGATT
B12: GGUCCUA (DNA:RNA)
RNA: B1 RNA with C25G, A27U, A29C, A30U, C31A
DNA 1: CAATCTGAATTCCGGTCTCCC
DNA 2: TGGTGGCTACGACGGGATT
B13: UUAAGUG (DNA:RNA)
RNA: B5 RNA with G25U, G27A, G28A, C30U
DNA 1: CAATCTGAATTCCGGTCTCCC
DNA 2: TGGTGGCTACGACGGGATT
B14: AUUGUGA (DNA:RNA)
RNA: B5 RNA with G25A, G27U, G29U, C30G, G31A
DNA 1: CAATCTGAATTCCGGTCTCCC
DNA 2: TGGTGGCTACGACGGGATT
B15: GGGAGUA (DNA:RNA)
RNA: B5 RNA with U26G, G28A, C30U, G31A
DNA 1: CAATCTGAATTCCGGTCTCCC
DNA 2: TGGTGGCTACGACGGGATT
B16: ACACCCA (DNA:RNA)
RNA: B1 RNA with C25A, G26C, A29C, A30C, C31A
DNA 1: CAATCTGAATTCCGGTCTCCC
DNA 2: TGGTGGCTACGACGGGATT
B17: CAUGUGA (DNA:RNA)
RNA: B1 RNA with G26A, A27U, C28G, A29U, A30G, C31A
DNA 1: CAATCTGAATTCCGGTCTCCC
DNA 2: TGGTGGCTACGACGGGATT
B18: GGGGAUG (DNA:RNA)
RNA: B5 RNA with U26G, G29A, C30U
DNA 1: CAATCTGAATTCCGGTCTCCC
DNA 2: TGGTGGCTACGACGGGATT
B19: UUGACGU (DNA:RNA)
RNA: B5 RNA with G25U, G28A, G29C, C30G, G31U
DNA 1: CAATCTGAATTCCGGTCTCCC
DNA 2: TGGTGGCTACGACGGGATT
B20: CGGCCUC (DNA:RNA)
RNA: B1 RNA with A27G, A29C, A30U
DNA 1: CAATCTGAATTCCGGTCTCCC
DNA 2: TGGTGGCTACGACGGGATT
B21: AAUGCCU (DNA:RNA)
RNA: B5 RNA with G25A, U26A, G27U, G29C, G31U
DNA 1: CAATCTGAATTCCGGTCTCCC
DNA 2: TGGTGGCTACGACGGGATT
B22: GCCUCAA (DNA:RNA)
RNA: B1 RNA with C25G, G26C, A27C, C28U, A29C, C31A
DNA 1: CAATCTGAATTCCGGTCTCCC
DNA 2: TGGTGGCTACGACGGGATT
B23: UAAUGCU (DNA:RNA)
RNA: B5 RNA with G25U, U26A, G27A, G28U, G31U
DNA 1: CAATCTGAATTCCGGTCTCCC
DNA 2: TGGTGGCTACGACGGGATT
B24: UUAGGCU (DNA:RNA)
RNA: B5 RNA with G25U, G27A, G31U
DNA 1: CAATCTGAATTCCGGTCTCCC
DNA 2: TGGTGGCTACGACGGGATT
B25: AAAAGCA (DNA:RNA)
RNA: B5 RNA with G25A, U26A, G27A, G28A, G31A
DNA 1: CAATCTGAATTCCGGTCTCCC
DNA 2: TGGTGGCTACGACGGGATT
B26: GACGUGC (DNA:RNA)
RNA: B5 RNA with U26A, G27C, G29U, C30G, G31C
DNA 1: CAATCTGAATTCCGGTCTCCC
DNA 2: TGGTGGCTACGACGGGATT
B27: AUUUCAA (DNA:RNA)
RNA: B1 RNA with C25A, G26U, A27U, C28U, A29C, C31A
DNA 1: CAATCTGAATTCCGGTCTCCC
DNA 2: TGGTGGCTACGACGGGATT
B28: GCGCGGG (DNA:RNA)
RNA: B5 RNA with U26C, G28C, C30G
DNA 1: CAATCTGAATTCCGGTCTCCC
DNA 2: TGGTGGCTACGACGGGATT
B29: GACGUUG (DNA:RNA)
RNA: B5 RNA with U26A, G27C, G29U, C30U
DNA 1: CAATCTGAATTCCGGTCTCCC
DNA 2: TGGTGGCTACGACGGGATT
B30: CCCAGCG (DNA:RNA)
RNA: B5 RNA with G25C, U26C, G27C, G28A
DNA 1: CAATCTGAATTCCGGTCTCCC
DNA 2: TGGTGGCTACGACGGGATT
B31: CUUAACA (DNA:RNA)
RNA: B1 RNA with G26U, A27U, C28A, A30C, C31A
DNA 1: CAATCTGAATTCCGGTCTCCC
DNA 2: TGGTGGCTACGACGGGATT

Biological target: T1, RBFOX1 RRM RbFoxmut (Fox-RRM*)
Assay: EMSA; HiTS-Eq, 1 nM pool, 10 min; buffer printed only for the single-RNA assays: 10 mM Tris pH 7.5, 150 mM NaCl, 3.4 mM EDTA, 0.001% NP-40, 30 C
Details: tags: His6 N-terminal (pET28a); label: 5' 32P
Summary of the method: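 Purified wild-type or mutant RbFox RRM at increasing concentrations was equilibrated with 1 nM of 5′-radiolabelled RNA carrying 7 randomized nucleotides for 10 min in 50 µL. Unbound RNA was separated by 8% native PAGE and sequenced. Relative association constants came from read-count changes of each RNA species compared with the control reaction, normalised to the cognate motif.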

Binder | binding signal
B1 | 0.0312 KA relative to UGCAUGU
B2 | 0.139 KA relative to UGCAUGU
B3 | 0.157 KA relative to UGCAUGU
B4 | 0.0595 KA relative to UGCAUGU
B5 | 0.18 KA relative to UGCAUGU
B6 | 0.0912 KA relative to UGCAUGU
B7 | 0.0762 KA relative to UGCAUGU
B8 | 0.105 KA relative to UGCAUGU
B9 | 0.0707 KA relative to UGCAUGU
B10 | 0.0648 KA relative to UGCAUGU
B11 | 0.0515 KA relative to UGCAUGU
B12 | 0.103 KA relative to UGCAUGU
B13 | 0.122 KA relative to UGCAUGU
B14 | 0.0934 KA relative to UGCAUGU
B15 | 0.152 KA relative to UGCAUGU
B16 | 0.0786 KA relative to UGCAUGU

Binder | binding signal
B17 | 0.102 KA relative to UGCAUGU
B18 | 0.612 KA relative to UGCAUGU
B19 | 0.0791 KA relative to UGCAUGU
B20 | 0.129 KA relative to UGCAUGU
B21 | 0.0832 KA relative to UGCAUGU
B22 | 0.093 KA relative to UGCAUGU
B23 | 0.0885 KA relative to UGCAUGU
B24 | 0.0832 KA relative to UGCAUGU
B25 | 0.0974 KA relative to UGCAUGU
B26 | 0.118 KA relative to UGCAUGU
B27 | 0.0991 KA relative to UGCAUGU
B28 | 0.0952 KA relative to UGCAUGU
B29 | 0.117 KA relative to UGCAUGU
B30 | 0.102 KA relative to UGCAUGU
B31 | 0.0889 KA relative to UGCAUGU
